Results are given in words; binding and its absence hold for the method and conditions named. For part of these data: In cells and extracts the contact can be indirect. Some results given as binding are weak or reduced against the parent protein; the word gives no strength. For part of these data: Sequences can lack the tags named with a protein.

Protein sequences, listed by entry. Tags and fused reporters are not part of them.
UniProt Q15418: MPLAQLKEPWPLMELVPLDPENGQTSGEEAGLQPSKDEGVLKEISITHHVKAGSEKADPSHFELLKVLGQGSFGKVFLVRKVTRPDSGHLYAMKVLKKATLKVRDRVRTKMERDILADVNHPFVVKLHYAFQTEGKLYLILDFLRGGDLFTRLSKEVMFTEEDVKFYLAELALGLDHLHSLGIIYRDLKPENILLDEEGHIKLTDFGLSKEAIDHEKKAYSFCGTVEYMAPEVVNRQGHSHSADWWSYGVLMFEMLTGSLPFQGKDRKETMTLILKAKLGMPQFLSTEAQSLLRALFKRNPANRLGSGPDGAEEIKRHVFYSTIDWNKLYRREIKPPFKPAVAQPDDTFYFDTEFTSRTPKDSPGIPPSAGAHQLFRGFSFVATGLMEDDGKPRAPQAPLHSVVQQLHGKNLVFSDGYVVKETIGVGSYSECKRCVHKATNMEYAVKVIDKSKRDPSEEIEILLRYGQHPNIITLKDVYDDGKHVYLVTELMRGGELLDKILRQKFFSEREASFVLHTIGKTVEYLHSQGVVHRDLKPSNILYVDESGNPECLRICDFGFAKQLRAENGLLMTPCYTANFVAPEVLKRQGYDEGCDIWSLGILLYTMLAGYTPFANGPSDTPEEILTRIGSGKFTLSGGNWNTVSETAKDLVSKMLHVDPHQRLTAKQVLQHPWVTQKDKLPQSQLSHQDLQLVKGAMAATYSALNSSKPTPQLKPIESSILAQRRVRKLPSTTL
UniProt P51812: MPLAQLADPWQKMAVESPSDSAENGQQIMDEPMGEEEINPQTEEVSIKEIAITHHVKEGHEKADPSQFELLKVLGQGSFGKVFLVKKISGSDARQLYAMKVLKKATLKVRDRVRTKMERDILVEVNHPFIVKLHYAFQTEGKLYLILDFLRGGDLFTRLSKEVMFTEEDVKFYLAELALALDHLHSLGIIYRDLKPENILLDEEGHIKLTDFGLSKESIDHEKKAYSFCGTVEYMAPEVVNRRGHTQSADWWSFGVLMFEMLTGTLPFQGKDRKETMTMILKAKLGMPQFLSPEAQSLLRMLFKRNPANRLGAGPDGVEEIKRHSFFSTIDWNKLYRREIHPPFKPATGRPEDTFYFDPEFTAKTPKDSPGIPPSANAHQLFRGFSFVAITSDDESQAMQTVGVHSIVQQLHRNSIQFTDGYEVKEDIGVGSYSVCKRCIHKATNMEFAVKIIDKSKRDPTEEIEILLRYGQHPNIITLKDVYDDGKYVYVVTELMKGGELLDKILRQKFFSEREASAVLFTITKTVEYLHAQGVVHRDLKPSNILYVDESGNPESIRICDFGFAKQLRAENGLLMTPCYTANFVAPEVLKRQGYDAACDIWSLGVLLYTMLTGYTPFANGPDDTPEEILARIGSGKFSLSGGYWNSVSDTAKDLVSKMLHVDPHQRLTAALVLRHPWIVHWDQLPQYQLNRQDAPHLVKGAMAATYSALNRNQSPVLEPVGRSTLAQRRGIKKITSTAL
UniProt Q15349: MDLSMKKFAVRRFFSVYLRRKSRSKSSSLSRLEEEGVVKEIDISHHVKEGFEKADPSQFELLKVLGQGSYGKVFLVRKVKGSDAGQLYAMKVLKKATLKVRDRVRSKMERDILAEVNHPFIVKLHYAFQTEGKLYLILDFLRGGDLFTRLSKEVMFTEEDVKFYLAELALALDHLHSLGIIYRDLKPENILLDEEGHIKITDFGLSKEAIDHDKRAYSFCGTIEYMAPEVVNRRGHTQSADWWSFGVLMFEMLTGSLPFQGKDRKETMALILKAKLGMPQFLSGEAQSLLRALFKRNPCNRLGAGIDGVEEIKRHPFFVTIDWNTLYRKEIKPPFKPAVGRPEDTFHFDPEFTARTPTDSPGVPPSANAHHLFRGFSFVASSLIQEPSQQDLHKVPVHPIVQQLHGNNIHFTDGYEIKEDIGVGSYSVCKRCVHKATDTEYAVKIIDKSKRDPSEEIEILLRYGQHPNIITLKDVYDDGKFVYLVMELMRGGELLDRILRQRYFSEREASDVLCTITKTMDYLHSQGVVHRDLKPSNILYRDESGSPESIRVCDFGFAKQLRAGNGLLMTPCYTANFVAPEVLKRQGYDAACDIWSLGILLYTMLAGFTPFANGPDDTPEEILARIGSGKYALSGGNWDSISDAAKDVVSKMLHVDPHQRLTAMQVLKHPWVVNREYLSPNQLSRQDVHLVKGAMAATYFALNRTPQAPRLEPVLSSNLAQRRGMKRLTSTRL
UniProt Q9UK32: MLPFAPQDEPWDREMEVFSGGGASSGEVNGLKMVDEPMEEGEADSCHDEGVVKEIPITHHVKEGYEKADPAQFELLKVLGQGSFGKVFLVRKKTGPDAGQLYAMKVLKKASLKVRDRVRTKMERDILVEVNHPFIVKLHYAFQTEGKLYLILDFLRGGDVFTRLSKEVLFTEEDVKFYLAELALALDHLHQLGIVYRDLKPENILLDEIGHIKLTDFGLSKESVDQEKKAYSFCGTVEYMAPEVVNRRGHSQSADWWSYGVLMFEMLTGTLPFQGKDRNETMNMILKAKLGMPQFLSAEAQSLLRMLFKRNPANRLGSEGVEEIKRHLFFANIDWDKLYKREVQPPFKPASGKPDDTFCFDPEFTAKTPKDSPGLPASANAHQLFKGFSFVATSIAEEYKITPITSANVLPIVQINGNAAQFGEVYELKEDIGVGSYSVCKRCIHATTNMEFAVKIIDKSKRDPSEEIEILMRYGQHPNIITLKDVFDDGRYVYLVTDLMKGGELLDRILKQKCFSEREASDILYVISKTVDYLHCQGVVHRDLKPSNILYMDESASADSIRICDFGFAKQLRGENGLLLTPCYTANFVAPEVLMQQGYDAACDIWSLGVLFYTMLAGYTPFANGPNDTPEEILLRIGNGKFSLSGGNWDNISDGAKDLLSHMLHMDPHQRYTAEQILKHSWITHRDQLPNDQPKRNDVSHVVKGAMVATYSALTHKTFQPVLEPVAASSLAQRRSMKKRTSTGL

In experiment [1] the target is T1, pACT-VP16-ELK3-FL (UniProt P41970).
T1 sequence: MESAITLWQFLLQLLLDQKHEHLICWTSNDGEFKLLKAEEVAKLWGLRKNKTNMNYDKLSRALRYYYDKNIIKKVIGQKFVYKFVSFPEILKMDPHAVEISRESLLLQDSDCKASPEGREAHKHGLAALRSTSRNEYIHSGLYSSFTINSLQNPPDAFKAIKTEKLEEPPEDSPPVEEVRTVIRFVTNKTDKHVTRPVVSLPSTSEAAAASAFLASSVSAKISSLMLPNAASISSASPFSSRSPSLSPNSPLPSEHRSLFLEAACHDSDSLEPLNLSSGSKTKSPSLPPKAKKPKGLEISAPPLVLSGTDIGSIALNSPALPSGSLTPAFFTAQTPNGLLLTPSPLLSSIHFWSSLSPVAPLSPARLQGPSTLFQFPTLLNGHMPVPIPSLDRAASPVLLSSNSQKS
As to the kind of experiment: co-IP; RSK2 deletion mutants co-expressed with full-length VP16-ELK3 in HEK293T; ELK3 immunoprecipitated with VP-16 tag antibody, RSK2 detected with His-tag antibody.

Experiment [2] addresses T2, His-ELK3-D4 (UniProt P41970).
T2 sequence: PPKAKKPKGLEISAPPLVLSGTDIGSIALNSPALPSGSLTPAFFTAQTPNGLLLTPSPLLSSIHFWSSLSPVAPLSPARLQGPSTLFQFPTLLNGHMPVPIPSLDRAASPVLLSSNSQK
As to the kind of experiment: pull-down; bacterially expressed His-ELK3 proteins coupled with Ni-IDA resin, incubated at 4 °C for 30 min with 400 μg lysate of HEK293T cells expressing Myc-RSK2 in 150 mM NaCl, 40 mM Tris pH 8.0, 0.5% NP-40; western blotting with Myc and RSK2 antibodies; only the target purified. A general note: Immunoblotting shows a protein as a band on a membrane.

For experiment [3], the target named is pBIND-RSK1 (UniProt Q15418). Kind of experiment: two-hybrid; mammalian two-hybrid (Promega Checkmate) in HEK293T cells; pBIND-RSK as bait, pACT-transcription factor, pG5-luciferase at the same molar ratio; firefly luciferase normalized to Renilla.
In experiment [4] the target is pBIND-RSK2 (ribosomal S6 kinase 2 fused to the Gal4 DNA-binding domain) (UniProt P51812). The description is as above.
In experiment [5] the target is pBIND-RSK3 (UniProt Q15349). The experiment is described as above.
The target in experiment [6] is pBIND-RSK4 (UniProt Q9UK32). The experiment is described as above.
Experiment [7] has as its target pBIND-RSK2 (ribosomal S6 kinase 2 fused to the Gal4 DNA-binding domain) (UniProt P51812). Kind of experiment: co-IP; pBIND-RSK2 and each pcDNA4-HisMax-ELK co-expressed in HEK293T; NP-40 lysis buffer, protein G beads, western blotting; the precipitating antibody is not given.
In experiment [8] the target is RSK2-FL (His- and Xpress-tagged full-length RSK2) (UniProt P51812). As to the kind of experiment: co-IP; VP16-ELK3 deletion mutants co-expressed with full-length RSK2 in HEK293T; RSK2 immunoprecipitated with Xpress tag antibody, ELK3 detected with VP-16 tag antibody.

Take “RSK2-FL (His- and Xpress-tagged full-length RSK2) (from UniProt P51812 1-740) (enzyme)”: the binding result in experiment [1] is reported as “binds”.
For “Myc-RSK2 (from UniProt P51812 1-740) (enzyme)”, in experiment [2], the binding entry is on record as “binds”.

B1: pACT-VP16-ELK3-FL (protein, UniProt P41970 1-407)
chain: T1 sequence
On to B1, for which the binding result is given as “binds” in experiment [3], “binds” in experiment [4], “binds weakly” in experiment [5] and “binds weakly” in experiment [6].

B2: pcDNA4-HisMax-ELK3 (protein, UniProt P41970 1-407)
chain: T1 sequence
B2: in experiment [7], the binding entry was “binds”.

B3: pACT-ELK4 (protein, UniProt P28324 1-431)
chain: MDSAITLWQFLLQLLQKPQNKHMICWTSNDGQFKLLQAEEVARLWGIRKNKPNMNYDKLSRALRYYYVKNIIKKVNGQKFVYKFVSYPEILNMDPMTVGRIEGDCESLNFSEVSSSSKDVENGGKDKPPQPGAKTSSRNDYIHSGLYSSFTLNSLNSSNVKLFKLIKTENPAEKLAEKKSPQEPTPSVIKFVTTPSKKPPVEPVAATISIGPSISPSSEETIQALETLVSPKLPSLEAPTSASNVMTAFATTPPISSIPPLQEPPRTPSPPLSSHPDIDTDIDSVASQPMELPENLSLEPKDQDSVLLEKDKVNNSSRSKKPKGLELAPTLVITSSDPSPLGILSPSLPTASLTPAFFSQTPIILTPSPLLSSIHFWSTLSPVAPLSPARLQGANTLFQFPSVLNSHGPFTLSGLDGPSTPGPFSPDLQKT
In the case of B3, the binding result in experiment [3] was “binds”; in experiment [4] it was “binds”; in experiment [5] it was “binds weakly”; in experiment [6], “binds weakly”.

B4: pcDNA4-HisMax-ELK4 (protein, UniProt P28324 1-431)
chain: B3 chain
In the case of B4, the binding entry in experiment [7] is on record as “binds”.

B5: pACT-VP16-ELK3-D4 (domain or fragment, UniProt P41970 288-406)
chain: T2 sequence
On to B5, for which the binding result in experiment [8] is “binds”.

B6: pACT-VP16-ELK3-D2 (domain or fragment, UniProt P41970 93-209)
chain: MDPHAVEISRESLLLQDSDCKASPEGREAHKHGLAALRSTSRNEYIHSGLYSSFTINSLQNPPDAFKAIKTEKLEEPPEDSPPVEEVRTVIRFVTNKTDKHVTRPVVSLPSTSEAAA
On to B6, for which the binding result in experiment [8] is recorded as “no binding”.

B7: pACT-VP16-ELK3-D3 (domain or fragment, UniProt P41970 211-287)
chain: SAFLASSVSAKISSLMLPNAASISSASPFSSRSPSLSPNSPLPSEHRSLFLEAACHDSDSLEPLNLSSGSKTKSPSL
For B7, the binding entry in experiment [8] was “no binding”.

B8: pACT-ELK1 (protein, UniProt P19419 1-428)
chain: MDPSVTLWQFLLQLLREQGNGHIISWTSRDGGEFKLVDAEEVARLWGLRKNKTNMNYDKLSRALRYYYDKNIIRKVSGQKFVYKFVSYPEVAGCSTEDCPPQPEVSVTSTMPNVAPAAIHAAPGDTVSGKPGTPKGAGMAGPGGLARSSRNEYMRSGLYSTFTIQSLQPQPPPHPRPAVVLPSAAPAGAAAPPSGSRSTSPSPLEACLEAEEAGLPLQVILTPPEAPNLKSEELNVEPGLGRALPPEVKVEGPKEELEVAGERGFVPETTKAEPEVPPQEGVPARLPAVVMDTAGQAGGHAASSPEISQPQKGRKPRDLELPLSPSLLGGPGPERTPGSGSGSGLQAPGPALTPSLLPTHTLTPVLLTPSSLPPSIHFWSTLSPIAPRSPAKLSFQFPSSGSAQVHIPSISVDGLSTPVVLSPGPQKP
Consider B8, for which the binding result in experiment [3] was “binds”; in experiment [4], “binds”; in experiment [5], “binds weakly”; in experiment [6] it was “binds weakly”.

B9: pcDNA4-HisMax-ELK1 (protein, UniProt P19419 1-428)
chain: B8 chain
Take B9: the binding entry in experiment [7] was “binds weakly”.

B10: pACT-VP16-ELK3-D1 (domain or fragment, UniProt P41970 1-92)
chain: MESAITLWQFLLQLLLDQKHEHLICWTSNDGEFKLLKAEEVAKLWGLRKNKTNMNYDKLSRALRYYYDKNIIKKVIGQKFVYKFVSFPEILK
For the molecule B10, the binding result in experiment [8] is recorded as “no binding”.

(Values after article PMC6515335.)
